Among all 39,000 compounds or so, about 220 (0.56%) showed activity. Some of the results follow.
The molecules below were run on Escherichia coli K-12 BW25113 (assay: relative growth (OD600 normalised to plate interquartile mean) (fraction); higher = less growth inhibition, active = 0.2 or less). Conditions: 50 µM; LB; incubation time: overnight (16-24 h).
With `C[C@H](CO)N1C[C@H](C)[C@H](CN(C)S(=O)(=O)c2ccc(F)cc2)Oc2ccc(NS(=O)(=O)c3cccs3)cc2CC1=O` the relative growth was inactive: 0.993.
With `COc1ccc(C#Cc2ccc3c(c2)O[C@H](CN(C)C(=O)CN2CCOCC2)[C@H](C)CN([C@@H](C)CO)S3(=O)=O)cc1` the relative growth was inactive: 1.02.
`CN(C)Cc1c(C(=O)N/N=C/c2ccncc2)nnn1-c1nonc1N` was tested, and the relative growth was inactive: 0.989.
`COc1ccc(NC(=O)N(C)C[C@H]2OCCCC[C@H](C)Oc3ccc(NS(=O)(=O)c4ccccc4)cc3C(=O)N([C@@H](C)CO)C[C@H]2C)cc1` was tested, and the relative growth was inactive: 0.966.
For `C[C@@H]1CN([C@H](C)CO)S(=O)(=O)c2ccc(-c3ccc(F)cc3)cc2O[C@H]1CN(C)S(C)(=O)=O`, the relative growth was inactive: 1.01.
In the case of `COc1ccc(S(=O)(=O)Nc2ccc3c(c2)CC(=O)N([C@@H](C)CO)C[C@H](C)[C@@H](CN(C)C(=O)Nc2c(C)noc2C)O3)cc1`, the relative growth is reported as inactive: 1.02.
With `Cc1ccc(-c2ccc3c(c2)O[C@@H](CN(C)Cc2cncnc2)[C@H](C)CN([C@@H](C)CO)S3(=O)=O)cc1` the relative growth was inactive: 0.996.
`COc1ccc(NC(=O)N(C)C[C@H]2Oc3ccc(NC(=O)CCN4CCOCC4)cc3CC(=O)N([C@H](C)CO)C[C@H]2C)cc1` was tested, and the relative growth was inactive: 0.972.
For `Cc1ccc(S(=O)(=O)N(C)C[C@H]2Oc3ccc(NC(=O)c4ccncc4)cc3CC(=O)N([C@H](C)CO)C[C@@H]2C)cc1`, the relative growth was inactive: 1.02.
`C[C@@H]1O[C@@H](O[C@H]2[C@H](Oc3cc(O)c4c(=O)cc(-c5ccc(O)cc5)oc4c3)O[C@H](CO)[C@@H](O)[C@@H]2O)[C@H](O)[C@H](O)[C@H]1O` was tested, and the relative growth was inactive: 0.981.
With `Cc1noc(C)c1NC(=O)N[C@H]1C=C[C@@H](CC(=O)N2CCN(C)CC2)O[C@H]1CO` the relative growth was inactive: 0.987.
For `C[C@@H]1CN([C@H](C)CO)C(=O)c2cccc(NC(=O)Nc3cccc4ccccc34)c2O[C@@H]1CN(C)Cc1ccc2c(c1)OCO2`, the relative growth was inactive: 1.
For `COc1ccccc1S(=O)(=O)N(C)C[C@H]1Oc2cc(C#CCC(C)C)ccc2S(=O)(=O)N([C@@H](C)CO)C[C@@H]1C`, the relative growth was inactive: 1.01.
With `COc1ccc(S(=O)(=O)N(C)C[C@@H]2Oc3ccc(NS(=O)(=O)c4cn(C)cn4)cc3CC(=O)N([C@H](C)CO)C[C@@H]2C)cc1` the relative growth was inactive: 1.01.
For `C[C@@H]1CCCCO[C@H](CN(C)C(=O)c2ccncc2)[C@H](C)CN([C@@H](C)CO)C(=O)c2cc(NC(=O)NC3CCCCC3)ccc2O1`, the relative growth was inactive: 0.995.
In the case of `C[C@@H]1CN([C@H](C)CO)C(=O)c2cc(NC(=O)Cc3ccccc3)ccc2O[C@@H](C)CCCCO[C@@H]1CN(C)C(=O)Cc1ccccc1`, the relative growth is reported as inactive: 1.01.
`C[C@H](CO)N1C[C@H](C)[C@H](CN(C)CC2CCCCC2)Oc2ccc(NC(=O)Nc3cccc4ccccc34)cc2CC1=O` was tested, and the relative growth was inactive: 1.02.
`C[C@H]1CN([C@@H](C)CO)C(=O)c2cccc(NC(=O)c3ccc(-c4nccs4)cc3)c2O[C@H]1CN(C)CC1CCCCC1` was tested, and the relative growth was inactive: 0.902.
With `C[C@@H]1CN([C@@H](C)CO)C(=O)c2cc(NC(=O)C3CCCCC3)ccc2O[C@@H](C)CCCCO[C@@H]1CN(C)S(=O)(=O)c1cccs1` the relative growth was inactive: 1.02.
With `Cn1nccc1CNC(=O)c1ccnn1C` the relative growth was inactive: 0.995.
`C=COCCCCO` was tested, and the relative growth was inactive: 1.
For `Cc1n[nH]c(C)c1N`, the relative growth was inactive: 1.03.
`C[C@H](CO)N1C[C@H](C)[C@@H](CN(C)C(=O)Nc2cccc3ccccc23)Oc2c(NC(=O)Nc3ccc(F)cc3)cccc2C1=O` was tested, and the relative growth was inactive: 0.986.
For `CO[C@@H]1CN(C)C(=O)c2cc(NS(=O)(=O)c3ccccc3C)ccc2OC[C@@H](C)N(S(C)(=O)=O)C[C@@H]1C`, the relative growth was inactive: 1.03.
With `Cc1ccc(CN2CCN(CCO)CC2)o1` the relative growth was inactive: 0.905.
In the case of `COc1ccc(NC(=O)N(C)C[C@@H]2OCCCC[C@H](C)Oc3ccc(NC(=O)c4ccncc4)cc3C(=O)N([C@@H](C)CO)C[C@@H]2C)cc1`, the relative growth is reported as inactive: 0.991.
In the case of `C[C@H](CO)N1C[C@H](C)[C@H](CN(C)S(=O)(=O)c2cn(C)cn2)Oc2ncc(-c3cccc(F)c3)cc2C1=O`, the relative growth is reported as inactive: 0.97.
`CO[C@@H]1CN(C)C(=O)c2cc(NC(=O)c3ccc(F)cc3)ccc2OC[C@H](C)N(C(=O)CN(C)C)C[C@@H]1C` was tested, and the relative growth was inactive: 1.
With `C[C@@H]1CN([C@@H](C)CO)C(=O)CCCn2nncc2CO[C@@H]1CN(C)Cc1cccc2c1OCCCO2` the relative growth was inactive: 0.992.
For `CC(=O)N(C)C[C@@H]1Oc2cc(C#CCN(C)C)ccc2S(=O)(=O)N([C@H](C)CO)C[C@H]1C`, the relative growth was inactive: 1.
In the case of `C[C@H](CO)N1C[C@H](C)[C@H](CN(C)C(=O)Nc2ccc3c(c2)OCO3)Oc2c(NC(=O)c3ccncc3)cccc2C1=O`, the relative growth is reported as inactive: 0.99.
With `COCC(=O)N1CC(=O)N2[C@@H](CO)[C@H](c3ccc(C#Cc4cccnc4)cc3)[C@@H]2C1` the relative growth was inactive: 1.
For `CNc1ccc(-c2nc(N3CCOCC3)c3sc(CN(C)c4ncc(C(=O)NO)cn4)cc3n2)cn1`, the relative growth was inactive: 0.802.
`CO[C@H]1CN(C)C(=O)c2ccc(NS(C)(=O)=O)cc2OC[C@@H](C)N(C(=O)C2CCOCC2)C[C@@H]1C` was tested, and the relative growth was inactive: 1.
For `Cc1noc(C)c1S(=O)(=O)N(C)C[C@H]1Oc2ccc(NS(=O)(=O)c3ccc(F)cc3)cc2CC(=O)N([C@@H](C)CO)C[C@@H]1C`, the relative growth was inactive: 1.02.
In the case of `COc1ccc(NC(=O)N(C)C[C@@H]2OCCCC[C@@H](C)Oc3ccc(NS(=O)(=O)c4ccc(OC)cc4)cc3C(=O)N([C@@H](C)CO)C[C@H]2C)cc1`, the relative growth is reported as inactive: 1.05.
In the case of `CCn1nnc(NC(=O)Cc2ccccc2)n1`, the relative growth is reported as inactive: 0.968.
In the case of `COc1ccc(S(=O)(=O)N(C)C[C@@H]2Oc3c(NC(=O)C4CCOCC4)cccc3C(=O)N([C@@H](C)CO)C[C@H]2C)cc1`, the relative growth is reported as inactive: 1.01.
For `C[C@H]1CN([C@@H](C)CO)C(=O)c2cc(NC(=O)Nc3ccccc3)ccc2O[C@H]1CN(C)S(=O)(=O)c1cn(C)cn1`, the relative growth was inactive: 1.
In the case of `NNC(=S)Nc1ccccc1`, the relative growth is reported as inactive: 1.01.
For `C[C@H]1CN([C@@H](C)CO)S(=O)(=O)c2ccc(C#CC3CCCC3)cc2O[C@@H]1CN(C)C(=O)Cc1ccncc1`, the relative growth was inactive: 1.02.
In the case of `C=CCON1C(=O)[C@@H]2[C@@H](C1=O)[C@@H]1C=C[C@@H]2O1`, the relative growth is reported as inactive: 1.
With `OC[C@H]1O[C@H](n2nnc3ccccc32)[C@@H](O)[C@@H](O)[C@@H]1O` the relative growth was inactive: 0.989.
With `C[C@@H]1CN([C@H](C)CO)C(=O)CCCn2cc(nn2)CO[C@H]1CN(C)S(=O)(=O)c1ccc(C#N)cc1` the relative growth was inactive: 0.984.
For `COc1ccc(NC(=O)N(C)C[C@H]2Oc3ccc(NC(=O)C4CC4)cc3C(=O)N([C@@H](C)CO)C[C@H]2C)cc1`, the relative growth was inactive: 0.963.
In the case of `C[C@H](CO)N1C[C@H](C)[C@@H](CN(C)Cc2ccc(Cl)c(Cl)c2)Oc2ccc(NC(=O)Nc3ccccc3)cc2CC1=O`, the relative growth is reported as inactive: 0.97.
With `C[C@@H]1CCCCO[C@H](CN(C)C(=O)Nc2ccc(F)cc2)[C@@H](C)CN([C@H](C)CO)C(=O)c2cc(NC(=O)c3ccncc3)ccc2O1` the relative growth was inactive: 0.996.
With `Cc1noc(C)c1S(=O)(=O)Nc1ccc2c(c1)CC(=O)N([C@H](C)CO)C[C@H](C)[C@H](CN(C)S(C)(=O)=O)O2` the relative growth was inactive: 1.02.
`O=C(O)c1ccc2c(c1)OCO2` was tested, and the relative growth was inactive: 0.853.
With `O=C(C[C@H]1C[C@H]2c3cc(NC(=O)C4CCOCC4)ccc3O[C@H]2[C@H](CO)O1)NCCN1CCCCC1` the relative growth was inactive: 1.02.
`Clc1cccc(Cc2cn3cc(-c4ccccc4)nc3s2)c1` was tested, and the relative growth was inactive: 1.01.
For `O=C(N[C@H](NC(=S)Nc1ccc(F)c([N+](=O)[O-])c1)C(Cl)(Cl)Cl)C(c1ccccc1)c1ccccc1`, the relative growth was inactive: 1.13.
`COc1ccc(NC(=O)Nc2ccc3c(c2)C(=O)N([C@H](C)CO)C[C@@H](C)[C@@H](CN(C)Cc2ccc(C(=O)O)cc2)OCCCC[C@H](C)O3)cc1` was tested, and the relative growth was inactive: 0.953.
In the case of `Cc1noc(C)c1S(=O)(=O)Nc1cccc2c1O[C@@H](CN(C)S(C)(=O)=O)[C@@H](C)CN([C@@H](C)CO)C2=O`, the relative growth is reported as inactive: 0.98.
`NC[C@@H](c1cccnc1)S(=O)(=O)c1ccc(Cl)cc1` was tested, and the relative growth was inactive: 1.02.
In the case of `COc1ccc(S(=O)(=O)N(C)C[C@@H]2Oc3c(NC(=O)Nc4cccc5ccccc45)cccc3C(=O)N([C@@H](C)CO)C[C@H]2C)cc1`, the relative growth is reported as inactive: 1.
For `CCN1C(=O)[C@@H]2CN(C(C)=O)C[C@@H]2C12CCN(C(=O)COC)CC2`, the relative growth was inactive: 1.01.
With `C[C@H]1CN([C@@H](C)CO)C(=O)c2cccc(NC(=O)C3CC3)c2O[C@H]1CN(C)S(=O)(=O)c1cn(C)cn1` the relative growth was inactive: 0.999.
For `COc1ccc(NC(=O)N(C)C[C@H]2OCCCC[C@@H](C)Oc3ccc(NS(=O)(=O)c4ccc(F)cc4)cc3C(=O)N([C@@H](C)CO)C[C@H]2C)cc1`, the relative growth was inactive: 1.03.
With `CN(CC(=O)Nc1ccccc1)S(C)(=O)=O` the relative growth was inactive: 0.999.
`COc1cccc(S(=O)(=O)N(C)C[C@@H]2Oc3ncc(-c4cccc(C(=O)N(C)C)c4)cc3C(=O)N([C@H](C)CO)C[C@@H]2C)c1` was tested, and the relative growth was inactive: 0.977.
In the case of `C=CC[C@H](CC(=O)N(CCO)Cc1ccccc1)C(=O)N[C@@H](COC(=O)[C@H](CC=C)CC(=O)OC(C)(C)C)Cc1c[nH]c2ccccc12`, the relative growth is reported as inactive: 1.08.
For `C[C@@H]1CN([C@@H](C)CO)C(=O)c2cccc(NC(=O)C3CC3)c2O[C@@H]1CN(C)S(=O)(=O)c1ccccc1`, the relative growth was inactive: 0.998.

From the supplement of paper PMC9446081
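Note: static incubation at 37 °C against the wild-type strain, values averaged over two biological replicates.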
